Data published in the supplement of paper PMC4967469.

Legend:
Assay in all cases: Viability of human cancer cell lines after 72 h of drug (GDSC screen)
Gefitinib = compound: COc1cc2ncnc(Nc3ccc(F)c(Cl)c3)c2cc1OCCCN1CCOCC1 [Gefitinib]; settings: top dose 0.5 µM
Protocol: (§1)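 Human cancer cell lines in 384-well plates, medium with 10% serum, drug for 72 h over a 256-fold dose range (nine 2-fold or five 4-fold steps up to the top dose). Adherent lines were fixed and stained with the nucleic acid dye Syto60, suspension lines read with resazurin; signal relative to control wells, capped at 0 and 100%. One two-parameter sigmoid per drug and line, fitted in a mixed model over all curves with the slope shared within a line.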

WHI-P97 = compound: COc1cc2ncnc(Nc3cc(Br)c(O)c(Br)c3)c2cc1OC [WHI-P97]; settings: top dose 10.24 µM; top dose inferred
Protocol: as §1

QL-XI-92 = compound: C=CC(=O)Nc1cc(NC(=O)c2ccc(C)c(NC(=O)c3ccno3)c2)cc(C(F)(F)F)c1 [QL-XI-92]; settings: top dose 10.24 µM; top dose inferred
Protocol: as §1

Vinorelbine = compound: CCC1=C[C@@H]2CN(C1)Cc1c([nH]c3ccccc13)[C@@](C(=O)OC)(c1cc3c(cc1OC)N(C)[C@H]1[C@@](O)(C(=O)OC)[C@H](OC(C)=O)[C@]4(CC)C=CCN5CC[C@]31[C@@H]54)C2 [Vinorelbine]; settings: top dose 0.064 µM; top dose inferred
Protocol: as §1

EHT 1864 = compound: O=c1cc(CN2CCOCC2)occ1OCCCCCSc1ccnc2cc(C(F)(F)F)ccc12 [EHT 1864]; settings: top dose 10 µM; top dose inferred
Protocol: as §1

NU-7441 = compound: O=c1cc(N2CCOCC2)oc2c(-c3cccc4c3sc3ccccc34)cccc12 [NU-7441]; settings: top dose 2 µM; top dose inferred
Protocol: as §1

XL-184 = compound: COc1cc2nccc(Oc3ccc(NC(=O)C4(C(=O)Nc5ccc(F)cc5)CC4)cc3)c2cc1OC [XL-184]; settings: top dose 5.12 µM; top dose inferred
Protocol: as §1

AG-014699 = compound: CNCc1ccc(-c2[nH]c3cc(F)cc4c3c2CCNC4=O)cc1 [AG-014699]; settings: top dose 5 µM; top dose inferred
Protocol: as §1

Phenformin = compound: N=C(N)NC(=N)NCCc1ccccc1 [Phenformin]; settings: top dose 4000 µM; top dose inferred
Protocol: as §1

| Cell Line | AUC (Gefitinib) | IC50 (Gefitinib) | AUC (WHI-P97) | IC50 (WHI-P97) | AUC (QL-XI-92) | IC50 (QL-XI-92) | AUC (Vinorelbine) | IC50 (Vinorelbine) | AUC (EHT 1864) | IC50 (EHT 1864) | AUC (NU-7441) | IC50 (NU-7441) | AUC (XL-184) | IC50 (XL-184) | AUC (AG-014699) | IC50 (AG-014699) | AUC (Phenformin) | IC50 (Phenformin) |
| --- | --- | --- | --- | --- | --- | --- | --- | --- | --- | --- | --- | --- | --- | --- | --- | --- | --- | --- |
| JHH-4 (liver, adherent) | 0.957 | > 0.5 µM | 0.955 | > 10.2 µM | 0.986 | > 10.2 µM | 0.894 | > 0.064 µM | 0.878 | > 10 µM | 0.951 | > 2 µM | 0.763 | 1.84 µM | 0.956 | > 5 µM | – | – |
| JHU-029 (head and neck, adherent) | 0.779 | 0.254 µM | – | – | – | – | 0.457 | 0.00297 µM | 0.969 | > 10 µM | 0.977 | > 2 µM | – | – | 0.973 | > 5 µM | – | – |
| KP-1N (pancreas, adherent) | 0.976 | > 0.5 µM | – | – | – | – | 0.558 | 0.00582 µM | 0.982 | > 10 µM | 0.986 | > 2 µM | – | – | 0.979 | > 5 µM | – | – |
| LN-405 (glioma, adherent) | 0.889 | > 0.5 µM | 0.975 | > 10.2 µM | 0.91 | > 10.2 µM | 0.908 | > 0.064 µM | 0.951 | > 10 µM | 0.975 | > 2 µM | 0.953 | > 5.12 µM | – | – | 0.648 | 716 µM |
| MDA-MB-330 (breast, adherent) | 0.969 | > 0.5 µM | 0.971 | > 10.2 µM | 0.986 | > 10.2 µM | 0.809 | 0.0392 µM | – | – | 0.98 | > 2 µM | 0.977 | > 5.12 µM | – | – | 0.756 | 1540 µM |
| MDA-MB-415 (breast, adherent) | 0.983 | > 0.5 µM | 0.98 | > 10.2 µM | 0.983 | > 10.2 µM | 0.711 | 0.0196 µM | 0.979 | > 10 µM | 0.935 | > 2 µM | 0.981 | > 5.12 µM | – | – | 0.59 | 481 µM |
| MDA-MB-436 (breast, adherent) | 0.973 | > 0.5 µM | 0.968 | > 10.2 µM | 0.975 | > 10.2 µM | 0.789 | 0.0367 µM | 0.958 | > 10 µM | 0.962 | > 2 µM | 0.972 | > 5.12 µM | – | – | 0.863 | > 4000 µM |
| MDA-MB-453 (breast, adherent) | 0.984 | > 0.5 µM | 0.975 | > 10.2 µM | 0.94 | > 10.2 µM | 0.86 | 0.0638 µM | 0.854 | 9.26 µM | 0.983 | > 2 µM | 0.971 | > 5.12 µM | – | – | 0.326 | 77.2 µM |
| PFSK-1 (medulloblastoma, adherent) | 0.969 | > 0.5 µM | 0.971 | > 10.2 µM | 0.957 | > 10.2 µM | 0.698 | 0.015 µM | 0.955 | > 10 µM | 0.925 | > 2 µM | 0.949 | > 5.12 µM | – | – | 0.716 | 1070 µM |
| SCC90 (head and neck, adherent) | 0.917 | > 0.5 µM | – | – | – | – | 0.734 | 0.0252 µM | 0.978 | > 10 µM | 0.981 | > 2 µM | – | – | 0.981 | > 5 µM | – | – |
| SNU-81 (large intestine, adherent) | 0.982 | > 0.5 µM | 0.98 | > 10.2 µM | 0.981 | > 10.2 µM | – | – | 0.931 | > 10 µM | 0.911 | > 2 µM | 0.982 | > 5.12 µM | 0.963 | > 5 µM | 0.89 | > 4000 µM |
| SNU-C5 (large intestine, adherent) | 0.985 | > 0.5 µM | 0.978 | > 10.2 µM | 0.975 | > 10.2 µM | – | – | 0.981 | > 10 µM | 0.917 | > 2 µM | 0.968 | > 5.12 µM | 0.986 | > 5 µM | 0.941 | > 4000 µM |
| STS-0421 (soft tissue, adherent) | 0.983 | > 0.5 µM | – | – | – | – | 0.64 | 0.0105 µM | 0.978 | > 10 µM | 0.963 | > 2 µM | – | – | 0.967 | > 5 µM | – | – |
| T-T (oesophagus, adherent) | 0.876 | 0.496 µM | 0.962 | > 10.2 µM | 0.984 | > 10.2 µM | 0.529 | 0.00478 µM | 0.92 | > 10 µM | 0.928 | > 2 µM | – | – | 0.987 | > 5 µM | 0.97 | > 4000 µM |
| TE-4 (oesophagus, adherent) | 0.83 | 0.313 µM | 0.925 | > 10.2 µM | 0.985 | > 10.2 µM | – | – | 0.97 | > 10 µM | 0.934 | > 2 µM | 0.984 | > 5.12 µM | 0.987 | > 5 µM | 0.88 | > 4000 µM |
| TT (thyroid, adherent) | 0.942 | > 0.5 µM | 0.971 | > 10.2 µM | 0.983 | > 10.2 µM | 0.982 | > 0.064 µM | 0.955 | > 10 µM | 0.969 | > 2 µM | – | – | 0.962 | > 5 µM | 0.938 | > 4000 µM |
| UWB1.289 (ovary, adherent) | 0.916 | > 0.5 µM | 0.865 | > 10.2 µM | 0.977 | > 10.2 µM | – | – | 0.958 | > 10 µM | 0.958 | > 2 µM | 0.866 | > 5.12 µM | 0.969 | > 5 µM | 0.945 | > 4000 µM |
| YH-13 (glioma, adherent) | 0.973 | > 0.5 µM | 0.916 | > 10.2 µM | 0.933 | > 10.2 µM | – | – | 0.955 | > 10 µM | 0.921 | > 2 µM | 0.806 | 2.78 µM | 0.971 | > 5 µM | 0.973 | > 4000 µM |

The IC50 comes from the fitted curve, where viability falls to half of the control; a limit (>, <) means that the fit lies beyond the doses tested. AUC is the area under the same curve over the 256-fold range up to the top dose, as a fraction: 1 means no effect, lower means more sensitive. For some of these results: An inferred top dose was calculated from the reported fits.
